In the supplement of paper PMC10126150:
Sequences with one replicate were seen in a single cluster, so their values are uncertain.

Test system: ATP
Test: switch fluorescence ratio, 500 uM ATP over buffer (Cy3 cluster intensity, sum of 5 cycles each) (fold (ratio)); higher = stronger signal-on switching upon ATP binding; sequences stand for … in TCGTCGGCAGCGTCAGATGTGTATAAGAGACAGTTTTTTTTTTTTTTTTTTTTTTTTT…TC
Conditions: aptamer strand: ATP DNA aptamer (quencher-CACCTGGGGGAGTATTGCGGAGGAAGG + anchor), 100 nM annealed; ATP concentration: 500 uM; one replicate
Method in brief: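 Cy3-labelled switching-strand clusters on a modified Illumina MiSeq flow-cell were annealed to 100 nM quencher-labelled ATP aptamer, imaged in selection buffer, then imaged after 15 min with 500 uM ATP at 22 °C. Five buffer/ATP cycles ran, with NaOH stripping and re-annealing between them. The fluorescence ratio is summed target-cycle over summed buffer-cycle Cy3 intensity per cluster, averaged per switch-domain sequence. Clusters outside 100-1000 RFU were excluded.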
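Note: ATP exposure 15 min at 22 °C before imaging.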

Sequence	switch fluorescence ratio
GGACAGCGGG	0.99
TACGTTATTG	1.13
TCTGCCTTAA	0.968
GCCTAGCATC	1.06
GATCTCTTTG	0.973
TTCGCTTT	1.37
TTGATCTTAC	1.04
GCGCACAATC	1.16
CAGCCGCTTA	2.44
ATGAGAGGTA	1.03
TTCCAGCATG	1.08
TGGGAATCGT	1
GAGAGAGCC	0.961
ACCGTTCAGT	1
GCCTACGAGG	1.08
CGCCCCGGGG	0.988
CGAATACCTC	1.1
GGATGTAGCT	0.95
CCTTGATCGG	0.995
GTAGGCCCTA	0.996
TAAACTTTAG	1.05
CTGAACAGCA	1.27
CACTGGTATA	1.06
AAGTGGCCCG	1.07
TTGAGTGGCA	1.02
TATAAAGGCA	0.996

Sequence	switch fluorescence ratio
CAGTGATG	1.13
GCCAGTATAA	0.959
TAACGTGTCG	0.992
TGTCTTGTCA	0.982
CAGGAGATTC	1.01
CAAGAGTCGT	0.973
GGAACCAGCA	1.08
GGGATGTGCC	0.979
TATTGGCGGC	0.968
TTACGAGATA	1.31
AAAATATTGC	0.944
ACCTAAAACT	1.1
AGTCTGTTTT	1
TGACAAGTCA	0.997
GAAAATGTCC	0.919
CACGCTTTCA	1.04
ATGTTGACGG	0.977
TTAGCCAGGC	0.99
GGGTTTTGT	0.976
TTGTTGGCAT	0.946
GTCCCGACGG	1.06
CTAGGTGGTC	1.03
GCGACATTGG	0.989
AAAGGTCGTA	1.02
ACGACAGCGG	1.13
CAAGGGTCG	0.968

Sequence	switch fluorescence ratio
GGAATCACGC	1
AAGCGGAGTG	1.16
ATTTGGAATC	1.02
TGGTCAATGT	0.958
TGAGCTCATT	0.975
GATGTGCGTA	0.957
GTTTAGAACA	0.966
ACATTCTGGT	0.968
GACACCCAT	1.17
GTGTTGATTC	1.02
GAATGCTCTC	0.995
AGGAACGAGC	1.01
TAAAACAAGC	1
GCTCTTGGGA	0.981
GTACTAGGGG	1.04
AGGCAGAGTT	0.945
TCGCATTATG	1.44
CCTTATCATT	1.06
TATGAAGAGC	0.996
GTTGGTGTGA	0.992
GATAATTCCA	0.987
TTGCCCCGAG	1.2
GGGAAACGCC	0.947
TTCAAAACCA	1.02
CATTATGGTT	1.03
TATACCTTTA	1.07

Sequence	switch fluorescence ratio
ACGTTTTGGT	1.17
GCATCTGCAG	1.03
TATGTTCCAC	0.977
GACGTATAGA	1.06
CGAGAATCGA	1.02
TCAATCCGAT	0.989
CGTGTCTTAT	0.982
GGACTAGGCT	1.01
GAGTTAGCGG	0.994
ATTGCTATAG	1.04
ATCGACGTTA	1.03
CTAGCGATA	1.57
CACACCGCAA	2.05
ATTAAATCAT	0.997
GAGCGTGGTT	1
TGATGAGAGT	0.998
TCATTCTTAT	0.98
TACGGGACCT	1.42
TATATGAAGG	1.04
TTAGATATTG	1.03
TAACCGGTCA	1.04
TTGCATCGA	1.02
TAAACCTTCC	1.41
GAGGCCCTC	0.993
AGTTGTCTAT	1
AAGTGGGGAC	0.992

Sequence	switch fluorescence ratio
GCGCTGTAGG	1.05
GCTGCTGATG	0.983
ATGAAAGAGA	0.984
GGAGGGTCTC	1.01
AACGTCGGGT	1.05
CGAGTAATTG	1.11
GAGGTCTTGT	1.05
ACATAGTGCC	1.05
CAGGGTCGCA	1.02
GCAGTCTTAA	0.978
GAACCGAACT	1.56
CATCCAGATA	1.08
TCTATTCCGC	1.68
CCATCCAGGT	3.32
TCGCCAACCT	1.86
ACCCGCTTAT	2.53
GCTTTCCT	1.06
GAGGCTCCTT	0.991
TCAAAGCTCA	1.01
CGAGAGTCGC	0.983
AGATATGGAT	0.96
CCGGGTACAC	1.48
CGGAGCGGGC	1.28
ACATTTTGAC	0.966
TTGTCAATGG	2.17
GGACCCCG	0.874

Sequence	switch fluorescence ratio
AAGGCCATAA	0.952
ACGGAGCTAG	3.19
TACGTCTCAC	1.22
CGCCCAATTT	0.984
ACGCTCATTC	1.29
CGAAGTTAAC	1.06
ATGGATTTGA	1.02
ATTAACACAC	1.42
ATTTAACGAC	0.994
CACGCCTGG	1.07
GATGTAGGGT	0.973
GTAAGGACGA	1.01
TTGGTAGAGG	0.986
CCAATTTAAA	1.01
TCTTAAACTA	1.04
ACATAGTTCA	1
GAATTGTATA	0.953
TATGGCAGAT	1.05
CACGCTGATG	1.02
GGTGTCTCAT	0.971
TCTAGCTGG	1.01
GTTGCTAACG	1.02
GGTCTCAAAT	1.03
CAGGCATCTT	1
GGCGGGGATC	1.03
TCTCCACGTT	1.06

Sequence	switch fluorescence ratio
CGTCATTATG	0.996
GCTATTTGGC	0.945
CCTAGATTTG	1.01
CGGCCACGA	1.01
ATGGGTGCTC	1.02
CCAAGTCGTG	0.953
GTTCTAGAAG	1.02
ACGGGCTCTT	1.04
CGGTGTCTCT	0.97
TCCCCATAGT	1.1
TTTCCATATA	1.11
ATGAGTGTGC	1
CGGTATGAGT	1
TTCTTCGGGG	1.65
GATATCAGT	0.984
TAGATCCT	1.04
GGAACCATGA	1.01
TCGACAGGGT	0.997
ATTTAATTTG	1.01
CAAGTAGGT	0.991
ATTTCGCGG	1.06
CAGGCGGGCA	0.996
GCCACTCTCT	1.02
CGTCTGAA	0.959
GAAGTCTTGG	0.964
CGGACTAGGC	1.05

Sequence	switch fluorescence ratio
CCAGCTGGCC	1.01
AGGCGAATCA	0.99
TCTTTTGGG	0.966
ACGAGGGCAG	1.03
CTGTAACTTG	0.991
GATTTTGAGG	0.968
GAATTTGGTC	0.993
GGCGTGAACA	0.97
AGTGTGGCT	0.968
CCTTCTAATA	1.47
CTATTTACGT	1.06
CCTCTAAACG	1.66
AAATGATTAC	1.08
TGAGCTTACG	1.07
GTCTTTTCAG	0.973
AGAGCTTCCG	1.26
AATAGGTCGA	0.931
CGTCGGCAGT	1.43
GCGCTTAGTA	1.01
